Here are results for 42 sequences from publication PMC7819943, “Rice protein-binding microarrays: a tool to detect cis-acting elements near promoter regions in rice”.

The other results are listed elsewhere or left out.

The target of the experiment is T1, OsWOX13 (Oryza sativa, UniProt Q5QMM3 1-267).
T1 sequence: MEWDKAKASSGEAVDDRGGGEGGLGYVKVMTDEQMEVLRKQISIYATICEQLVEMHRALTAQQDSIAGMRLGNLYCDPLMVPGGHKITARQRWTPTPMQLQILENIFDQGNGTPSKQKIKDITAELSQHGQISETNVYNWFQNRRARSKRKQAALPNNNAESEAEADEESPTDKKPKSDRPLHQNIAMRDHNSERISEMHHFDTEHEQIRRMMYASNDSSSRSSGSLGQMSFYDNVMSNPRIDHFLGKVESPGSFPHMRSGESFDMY
Nature of the experiment: protein-binding microarray (RPBM); PBS, 2% BSA, 51.3 ng/ul salmon testes DNA, 50 uM zinc acetate, 200 nM TF, 25 C, 1 h; high values mean tight binding. Particulars: protein: recombinant; tags: N-terminal polyhistidine and DsRed monomer fusion (pET32a); label: CyDye5-dUTP incorporated in the synthesized complementary strand; 3' TTTTT single-stranded linker to array surface; dsDNA, one strand shown. The method, boiled down:
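Binding signal is reported as fluorescence intensity per feature (arbitrary units) from an Axon 4000B scanner. Incubation used 200 nM of each Ni–NTA-purified, N-terminally polyhistidine- and DsRed-fused transcription factor from E. coli BL21-CodonPlus on a double-stranded custom Agilent array for 1 h at 25 °C, with 50 µM zinc acetate in the buffer, followed by washing.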
Regarding “GTTAGATGGGATTAGTGAACTTGAGCATCAGGGTCAGTGGCGGAGTCACCTAGTGCAG”, the binding signal is 4560 fluorescence intensity (a.u.).
The value for “CTTGAATTCTCATAATTGGTTCTAGGGCTAATTTTGGGTGCGGAGTCACCTAGTGCAG” was 11700 fluorescence intensity (a.u.); that for “CTAATAAACAAGTTGACAGTAACGTACACTATTATCATGCCGGAGTCACCTAGTGCAG” was 9140 fluorescence intensity (a.u.).
The value for “TTTCTTTTCTATTCAATCATGTATCATGAATGTGTTGAACCGGAGTCACCTAGTGCAG” was 13700 fluorescence intensity (a.u.); that for “ATCCATCTTTCATCTTAATTTGTGAACAATATGATGGCACCGGAGTCACCTAGTGCAG” was 3890 fluorescence intensity (a.u.); that for “GGACGCTTAATTATGGTGTTCATCTGTTCGATATGGTCCACGGAGTCACCTAGTGCAG” was 13200 fluorescence intensity (a.u.).
For the sequence “TCCGACTTGACTGCTATAAACTGATGACTCGTCGAAAAGCCGGAGTCACCTAGTGCAG”, the binding signal is 16100 fluorescence intensity (a.u.).
On to “TCATTTGCTAATTAATGAATCCAGCGAGATCGACTGACGACGGAGTCACCTAGTGCAG”, for which the binding signal is 6560 fluorescence intensity (a.u.).
The value for “TTTCATTTCTATGATTGAATTATACACAGTGGCATTTACACGGAGTCACCTAGTGCAG” was 9980 fluorescence intensity (a.u.).
The figure for “TTGGTTCCTATGCTTAAACTGGCTGTAAATTTACAGCCCGCGGAGTCACCTAGTGCAG” is 3410 fluorescence intensity (a.u.); for “CAATCTGTCATCTCTTTACCAGTCTCATTGACATGTGGGCCGGAGTCACCTAGTGCAG” it is 3250 fluorescence intensity (a.u.); for “GATGAAATCAATCAACGAGATATATAAGCAGATAATACATCGGAGTCACCTAGTGCAG” it is 15200 fluorescence intensity (a.u.).
The value for “TTATGGTGGAAATCACGTGTCTGATTCTTGATTTTGTTAACGGAGTCACCTAGTGCAG” was 18800 fluorescence intensity (a.u.); that for “AATTAAATTTAAAGTCCATAAATTATAGAATTGACTAAAACGGAGTCACCTAGTGCAG” was 6900 fluorescence intensity (a.u.); that for “TTTAATTAAATATTATATATAATTGTTTTAAAGGAAAATGCGGAGTCACCTAGTGCAG” was 45800 fluorescence intensity (a.u.).
“GCGGGTGATTACAAGACGGACGGGAGAGCGATCACACGACCGGAGTCACCTAGTGCAG”: the binding signal is 5010 fluorescence intensity (a.u.).
The value for “TTTAGACAAATGAGATTAATATGGGTTAATTTTGTGGGAACGGAGTCACCTAGTGCAG” was 8720 fluorescence intensity (a.u.).
Consider “CCTAAATTAGGCTTACCAATATTTGGCAATTTCAATAGTGCGGAGTCACCTAGTGCAG”, for which the binding signal is 28200 fluorescence intensity (a.u.).
The value for “TTTTGATTACTCATATAATCACCTTGTTATTTCTTTATATCGGAGTCACCTAGTGCAG” was 11600 fluorescence intensity (a.u.).
Regarding “TGCTTGATGGGACTATTAAAGATTCCTCGCTCAATTGACACGGAGTCACCTAGTGCAG”, the binding signal is 15700 fluorescence intensity (a.u.).
The figure for “CCTAAGAAAGACATTTGGATAATTGGCAAACCTAAAAGTGCGGAGTCACCTAGTGCAG” is 9080 fluorescence intensity (a.u.); for “GACAAATTGAATGTTTAACAAACGTGAGACACCGGGAAAGCGGAGTCACCTAGTGCAG” it is 18200 fluorescence intensity (a.u.); for “TTTCACAAAATTGAATAAGATAAACGGTCAAATATGTGCTCGGAGTCACCTAGTGCAG” it is 4560 fluorescence intensity (a.u.).
The figure for “CGGACATGTTAGTTGTTTAAATTGAAGGCAATGTATTTCTCGGAGTCACCTAGTGCAG” is 3420 fluorescence intensity (a.u.); for “GTATGCAATTAATTAAGTACGTGGAAGCTTGTTTTCTGTACGGAGTCACCTAGTGCAG” it is 7680 fluorescence intensity (a.u.).
Regarding “CGAGAAATTTTAATCACAATAGGTAGGCTGTGTTAAGTTCCGGAGTCACCTAGTGCAG”, the binding signal is 5650 fluorescence intensity (a.u.).
Regarding “GGTATGATTCAATTAATTCTAGATTAAAATATACTATCTCCGGAGTCACCTAGTGCAG”, the binding signal was 25800 fluorescence intensity (a.u.).
As to “TCTGATTCGCTGAATTTCTGTCAACCTCAAATCTTCTGAACGGAGTCACCTAGTGCAG”, the binding signal was 4230 fluorescence intensity (a.u.).
The value for “ATATATATATATATATATATATTTTGTCTTGAGTGGTTTGCGGAGTCACCTAGTGCAG” was 12100 fluorescence intensity (a.u.); that for “CGTAATTGTTGGGCTACTGCGGTTTGAATGCTATGACGAGCGGAGTCACCTAGTGCAG” was 30300 fluorescence intensity (a.u.); that for “TTAATTGCTTGGTTTACTGACCATTTCCACTTGGAAAACTCGGAGTCACCTAGTGCAG” was 5130 fluorescence intensity (a.u.).
The figure for “TTAAATGATTCATCTTTCAGTACTTGGTGCAGTCTCCTTGCGGAGTCACCTAGTGCAG” is 4560 fluorescence intensity (a.u.); for “TTAAAATTTCATCAGTGATAGCTCGTATTAGCATGTAAATCGGAGTCACCTAGTGCAG” it is 4620 fluorescence intensity (a.u.); for “TGATGACTGGTAGCGCCTTGCCACCACCAACTGCACGGTGCGGAGTCACCTAGTGCAG” it is 4540 fluorescence intensity (a.u.).
Turning to “ATTAGGAGATTGACTTCGCATGATCTGACGGCTATGAAGCCGGAGTCACCTAGTGCAG”, the binding signal is 15600 fluorescence intensity (a.u.).
In the case of “CTAATTAATCCATGATTAGCCTATGTGATGCTACAGTAAACGGAGTCACCTAGTGCAG”, the binding signal was 28300 fluorescence intensity (a.u.).
The value for “ATATTTAATTATTGGTTTGATGGAACTAACTTAGTACTGTCGGAGTCACCTAGTGCAG” was 38400 fluorescence intensity (a.u.); that for “AAATGTCTTGTAGATTGATATATTACATGGAACAAAATTTCGGAGTCACCTAGTGCAG” was 3240 fluorescence intensity (a.u.); that for “GACTTCAATTGACATAAACAGGCATTGGTCCTTGCTCGAGCGGAGTCACCTAGTGCAG” was 20000 fluorescence intensity (a.u.).
Take “AATGGGAACTAATGGGCCGGATTGACTACTTTGCTACATTCGGAGTCACCTAGTGCAG”: the binding signal is 3240 fluorescence intensity (a.u.).
The figure for “GAACTGACATGTGACGATTGACCAACACTGGCACAGGGACCGGAGTCACCTAGTGCAG” is 6820 fluorescence intensity (a.u.).
The figure for “TTCATAATTTTCACTTTAAAATACATAGTTTTACACATGTCGGAGTCACCTAGTGCAG” is 8300 fluorescence intensity (a.u.).
